Assay results published in publication PMC9865020, “Identification of Novel Small Molecule Ligands for JAK2 Pseudokinase Domain” (Pharmaceuticals, 2023).

Legend:
[1] = target: T1, JAK2 JH2 wild-type (Homo sapiens, UniProt O60674); assay: Fluorescence polarization binding assay, Bodipy FL-ATP tracer; details: 100 µM analog concentration, FP
T1 construct: Human JAK2 JH2 (503-827); hexa histidine-tag (C); made in house; host or cells: High Five or Sf9 insect cells

[2] = target: T2, JAK2 JH2 (Homo sapiens, UniProt O60674); assay: More sensitive FP binding assay, Bodipy FL-labeled JNJ-7706621 tracer
T2 construct: Human JAK2 JH2 (503-827); hexa histidine-tag (C); made in house; host or cells: High Five or Sf9 insect cells

[3] = system: HEL cells; assay: alamarBlue cell viability assay; type: cell-based; details: Homo sapiens, HEL (JAK2 V617F homozygous), 48 h, upper detection limit 40 µM
[4] = system: SET-2 cells; assay: alamarBlue cell viability assay; type: cell-based; details: Homo sapiens, SET-2 (JAK2 V617F heterozygous), 48 h, upper detection limit 40 µM
[5] = system: Ba/F3-hJAK2 wildtype cells; assay: alamarBlue cell viability assay; type: cell-based, murine; details: Mus musculus, 48 h, n=3, read-out: Cell viability IC50 Ba/F3-hJAK2 wt
[6] = system: Ba/F3 hJAK2 V617F cells; assay: alamarBlue cell viability assay; type: cell-based, murine; details: Mus musculus, BaF3, 48 h, n=3
[7] = target: T3, JAK2 JH1 D976N (Homo sapiens, UniProt O60674, D976N); assay: Fluorescence polarization binding assay, Bodipy FL-ATP tracer; details: read-out: inhibition-% of tracer binding to JAK2 JH1
[8] = target: JAK1 JH2 (Homo sapiens, UniProt P23458); assay: More sensitive FP binding assay, Bodipy FL-labeled JNJ-7706621 tracer
[9] = target: JAK1 JH1 D1003N (Homo sapiens, UniProt P23458, D1003N); assay: as above
[10] = target: T4, JAK3 JH2 (Homo sapiens, UniProt P52333); assay: as above
T4 sequence (P52333 511-790): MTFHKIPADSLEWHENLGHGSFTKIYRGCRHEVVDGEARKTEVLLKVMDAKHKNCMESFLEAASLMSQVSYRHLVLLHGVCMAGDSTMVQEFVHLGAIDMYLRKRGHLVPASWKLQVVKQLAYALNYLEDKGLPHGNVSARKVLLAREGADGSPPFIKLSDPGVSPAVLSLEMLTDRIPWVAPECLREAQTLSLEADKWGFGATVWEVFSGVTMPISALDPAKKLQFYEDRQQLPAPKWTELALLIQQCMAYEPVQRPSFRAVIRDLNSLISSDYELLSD

[11] = target: JAK3 JH1 D949N (Homo sapiens, UniProt P52333, D949N); assay: as above
[12] = target: TYK2 JH2 (Homo sapiens, UniProt P29597); assay: as above
[13] = target: T5, TYK2 JH1 D1023N (Homo sapiens, UniProt P29597, D1023N); assay: as above
T5 sequence (P29597 886-1187 D1023N): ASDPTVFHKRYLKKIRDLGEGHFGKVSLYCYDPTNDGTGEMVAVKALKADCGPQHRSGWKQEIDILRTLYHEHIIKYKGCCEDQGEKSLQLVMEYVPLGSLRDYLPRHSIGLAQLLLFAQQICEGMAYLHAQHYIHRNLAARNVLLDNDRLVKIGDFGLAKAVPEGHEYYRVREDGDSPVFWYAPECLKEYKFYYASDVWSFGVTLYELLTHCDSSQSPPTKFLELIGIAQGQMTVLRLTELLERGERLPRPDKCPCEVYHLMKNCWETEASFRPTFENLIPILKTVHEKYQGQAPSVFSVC

[14] = target: T3, JAK2 JH1 D976N; assay: as above; design: JAK2 JH1 (836-1132) D976N; hexa histidine-tag (C); made in house; host or cells: High Five or Sf9 insect cells
[15] = target: JAK2 JH2 V617F (Homo sapiens, UniProt O60674, V617F); assay: as above; design: Hyperactive mutation V617F in the JAK2 regulatory pseudokinase domain (JH2); His tag (C); made in house; host or cells: High Five or Sf9 insect cells

SMILES: Cc1ccsc1CN(C)Cc1nc(N)nc(Nc2ccccc2)n1 [Compound 24]
- inhibition at 100 µM [1]: 85%
- IC50 [2]: 70 µM
- IC50 [3]: > 40 µM
- IC50 [4]: > 40 µM
- IC50 [5]: > 40 µM
- IC50 [6]: > 40 µM
- inhibition at 100 µM [7]: 13%
- IC50 [8]: > 100 µM
- IC50 [9]: > 100 µM
- IC50 [10]: > 100 µM
- IC50 [11]: > 100 µM
- IC50 [12]: > 100 µM
- IC50 [13]: > 100 µM
- IC50 [14]: > 100 µM
- IC50 [15]: 24 µM
- binding to JAK2 JH2 V617F stronger than to JAK2 JH2 wt ([15]; from Table 2 binding IC50): 2- to 3 fold
